This passage reports self-cleavage results from the RNAGym collection of RNA variant scans (doi:10.7554/elife.90254).

B1: LINE1-mini (parent)
chain: GGCAGAGCUCAACACAGCGUGGCAAAGUGGCUGUGGCUAGACUGCC

The source gives no read counts; variants with many changes may rest on few reads.

In the data set the parent is B1. Nature of the data set: self-cleavage, relative activity (ratio to wild type); higher = more cleavage; in vitro, sequencing; the parent is a self-cleaving ribozyme.
In the case of G19U G27U U38A A41G, the self-cleavage is 0.34.

For the variant G19C G30U U32C, the self-cleavage was 0.1. Take U20A A24C G29A U38A C42A: the self-cleavage came out at 0.04. As to G19A U20G C46A, the self-cleavage was determined as 1.59.

For the variant G19C G33C C46G, the self-cleavage was found to be 0.03. Take G19U G21C G27U G40C: the self-cleavage amounted to 0.12. On to G19U U20A A41C U43G C46A, for which the self-cleavage came out at 0.01. Turning to G19U U34C C45U, the self-cleavage worked out at 0.26. As to G19U G36U U43A, the self-cleavage was 0.01. Take G19A G30U G44U: the self-cleavage was 0.69. In the case of G19U C37A A39C it was 0.2. For G19C G30C U32G the value was 0.11.

As for U20A A24G G44A, the self-cleavage was found to be 0.09. In the case of G19A U20C A41C, the self-cleavage was found to be 0.01. In the case of G19C A26C C37A G44U it was 0.07; in that of U20A A26C G27A, 0.5; in that of G19C U38C G40C, 0.04. Consider G19C G30C A39U G44U, for which the self-cleavage stood at 0.06.

Consider G19U U43C C46A, for which the self-cleavage was determined as 0.08.

For G19C U38A C45A, the self-cleavage is 0.14.

For G19C G22C U32G U43C, the self-cleavage came to 0. For G19C U28A G29C C31A C42G C46A the value was 0.07; for G19U G36U C37A U43C, 0.13; for U20A C31U G33A, 0.04. As to G19U G29A G35U, the self-cleavage is 0.03. G19U G27A G33A G44C: the self-cleavage worked out at 0.18.

Regarding G19C G21C A24C, the self-cleavage stood at 0.19.

As to G19A G22A C46A, the self-cleavage worked out at 0.63. G19A G21U C46G: the self-cleavage was 0.87. Regarding G19U G44A C45A, the self-cleavage was found to be 0.04.

On to G19A G36C C37U, for which the self-cleavage was found to be 0.02.

For G19U U20G G21A G22C C23A C31A G35U U38G C46A, the self-cleavage was determined as 0.1. As to G19U G29U C42G, the self-cleavage amounted to 0.02. As for G19U G21U U28A U34C, the self-cleavage was 1.11. Take G19A G27U U43C: the self-cleavage amounted to 0.1. As for G19C A24C G27C C42A, the self-cleavage was 0.02. As for G19A G21U U28A, the self-cleavage was determined as 0.79.

With G19C G22A U34G, the self-cleavage was found to be 0.09. Consider G19C G30C G36A, for which the self-cleavage worked out at 0.13. In the case of G19C A24C U32A it was 0.08; in that of G19A U38C A41G, 0.28; in that of G19U U34C C37U G40A, 0.05. Turning to G19A U20A G40U, the self-cleavage was 0.36. For G19U G22A G35C U38A, the self-cleavage is 0.08. Regarding G19C G30A U34C, the self-cleavage came out at 0.21.

On to G19U C42A U43A C46G, for which the self-cleavage was 0.02. As to G19U A41U U43A, the self-cleavage was found to be 0.02. For G19U G27C G36C C42G, the self-cleavage came to 0.03. With G19C G22C C23U C45G, the self-cleavage turned out to be 0.01. In the case of U20A G21C A41G C46A, the self-cleavage is 0.13.

As for G19U U43C C45G, the self-cleavage amounted to 0.39. G19C G27C U28A: the self-cleavage came out at 0.71. As to G19A G22C G29C, the self-cleavage is 0.35. In the case of G19A G30A C31U U43C it was 0.04. Consider G19U U32C C42U, for which the self-cleavage came out at 0.04. For U20A A24G U28C the value was 0.52. As to G19A G44U C46G, the self-cleavage turned out to be 0.56. For the variant G19U G22U C31A C46A, the self-cleavage came out at 0.42.

In the case of G19U A26U C45U, the self-cleavage was determined as 1.35. U20A C23U U28G: the self-cleavage is 1.4.

In the case of G19U A25G G44U, the self-cleavage was 0.52.

With G19A G35A C37G, the self-cleavage was 0.02. G19C G27A G36U: the self-cleavage was 0.01. With U20A A26C G40U C42G, the self-cleavage is 0.03.

For the variant G19U C31U G35A, the self-cleavage turned out to be 0.02.

In the case of G19U G27U C31G, the self-cleavage amounted to 0.2.

Turning to G19U G35A G40U, the self-cleavage was 0.07. For U20A G21C G27A, the self-cleavage came out at 0.73. With G19C A26G G35U, the self-cleavage is 0.02.

On to U20A A24U C37U, for which the self-cleavage turned out to be 0. In the case of U20A C37U A39U it was 0.01; in that of G19C G35U G44C, 0.14; in that of G19U G27A G35A, 0.07. For G19A G33A C37G, the self-cleavage was 0.01. Take G19U G33C A41C: the self-cleavage was 0.14. Turning to G19C G40A U43C C46G, the self-cleavage stood at 0.01. For G19U G36U G40C, the self-cleavage stood at 0.13. In the case of G19A G27U G35A C42G it was 0.04. Take U20A C37G A41U: the self-cleavage worked out at 0.03.

In the case of G19A G30U U32G C46G, the self-cleavage worked out at 0.13. With G19C C23G U32G U38G, the self-cleavage came to 0.01. In the case of G19C G22C G29A it was 0.27; in that of G19C C23G G33U, 0.09; in that of G19C A41U C45G, 0.54. For G19C G27C G33A U34C the value was 0.02; for U20A A25C G44U, 0.05; for G19U G21U G27U G29C, 0.32. Turning to G19A G30U U38A, the self-cleavage amounted to 1.27. Turning to G19C C42G U43G, the self-cleavage is 0. For G19U U20G C31U G44U C45A the value was 0.15; for G19U U20A C23A G36C, 0.04. Regarding U20A A26C C45G, the self-cleavage is 0.28. In the case of G19A G22C C45U it was 2.04; in that of G19U A26G U38G, 0.07; in that of G19C G22A C37A, 0.02. In the case of U20A A24G U32A, the self-cleavage stood at 0.08. Turning to G19C U20C G27U, the self-cleavage was 0.18. With G19C C23G U28G, the self-cleavage was 0.18. U20A A41U C42A: the self-cleavage was 0.01.

As to G19U U43C G44U, the self-cleavage came out at 0.09. For G19U G30A G40C A41U the value was 0.06. For G19C G21U C23A, the self-cleavage came to 0.25. With G19U A25G G33A A39U, the self-cleavage turned out to be 0.06. Turning to G19C G33A G36C G40U, the self-cleavage stood at 0.03. For the variant U20A A24U G33A, the self-cleavage is 0.02.

For G19C U20C A25G U43A, the self-cleavage came out at 0. For U20A C37U U38G the value was 0.01; for G19C U43C C46U, 0.04; for G19A U34C G36U, 0.13. With G19C G22U G27C C45A, the self-cleavage was determined as 0.43.

Take U20A C31U G35A: the self-cleavage came to 0.04. For G19C G27C A41U, the self-cleavage turned out to be 0.47. In the case of G19U C23U U28A G30A C37A it was 0.01; in that of G19U G30U C45G, 0.1.

For G19C U32A G44U C46A, the self-cleavage came to 0.03. With G19U G35U C42A G44U, the self-cleavage was 0.01.

For the variant G19U G30C C31U, the self-cleavage is 0.6. On to G19C C42A C46G, for which the self-cleavage turned out to be 0.

For G19U G29C G44U C45U, the self-cleavage came out at 0.08.

Consider U20A A25G G36A U38G, for which the self-cleavage was found to be 0.01.

With G19C C37U G44C, the self-cleavage was 0.02. Consider U20A C23A G35U C37U, for which the self-cleavage was 0.03. With G19C G29U G36U, the self-cleavage came out at 0.02.

Turning to U20A A41U C45A, the self-cleavage came to 0.11.

On to G19A G29C A39U, for which the self-cleavage is 1.25. On to G19C G21A U28C U34A A41C, for which the self-cleavage came to 0.03. For the variant G19C G22C C37U U38A G44C, the self-cleavage worked out at 0. U20A A25G G30A U32C: the self-cleavage was found to be 0.05. With G19A G22C U38G, the self-cleavage is 0.02.

For G19A U20G G22C A25G U28C C31A, the self-cleavage turned out to be 0.08. As to G19U U32A U38C G44C, the self-cleavage stood at 0.04.

G19U U20C U28A: the self-cleavage was determined as 2.29. In the case of U20A G21C U32A U34A it was 0.01; in that of U20A G22A A26G G40C, 0.05. Regarding G19A G30U C37A A39G, the self-cleavage amounted to 0.06. As for G19C A25U C31U U43G G44U, the self-cleavage was 0.18. Turning to G19U U20A A26U G33C C45A, the self-cleavage stood at 0.03. In the case of G19A U28A A39G it was 0.1; in that of G19U U20G A25G G29A U43C, 0.2; in that of G19C G22U G29C C31U G40U, 0.04. For U20A G21A U28C G44U the value was 0.32. As to G19C A41U G44A, the self-cleavage came to 0.16. Take U20A C23U A26U C31G: the self-cleavage stood at 0.09. In the case of G19C A26U G36A, the self-cleavage was 0.07. On to G19C U28A C42U G44U C45U, for which the self-cleavage was found to be 0.02. Consider U20A G21U G40U U43A, for which the self-cleavage turned out to be 0.02. Regarding G19A G30A G33C C45U, the self-cleavage came out at 0.02. With G19C U32G G44C, the self-cleavage was found to be 0.04. For G19C G21U G22U C37U G44C the value was 0.02; for G19C A25G G29C C31G A39U, 0.03; for G19U U20A G22C A25G, 0.78. With G19C U20A C45U, the self-cleavage was determined as 1.37. G19U G36U C45G: the self-cleavage came out at 0.22. As to G19A G22C U32C, the self-cleavage amounted to 0.13. In the case of G19C A24C U28G G29A U43A, the self-cleavage is 0.14. With G19U U20A G27C U38A A39C, the self-cleavage is 0.03. Take G19C G30U C31G: the self-cleavage worked out at 0.09. Regarding U20A C31U U32G, the self-cleavage came out at 0.11. For G19A U20C G22C U28G A41C, the self-cleavage was 0. In the case of U20A A24U C31G, the self-cleavage turned out to be 0.

With G19U U28G U32A, the self-cleavage amounted to 0.2.

Turning to G19U C23U U32A, the self-cleavage was determined as 0.22. For G19C G27C G30U G33U G35A U38A, the self-cleavage came out at 0. As to G19A G21U U38A, the self-cleavage stood at 0.22.

In the case of G19U G27A C42U, the self-cleavage came out at 0.83. On to G19A G29U C31G, for which the self-cleavage came to 0.25. Turning to G19U C23U C46U, the self-cleavage is 0.71.
